Assay results reported in PMC6957217.
Results are given in words; binding and its absence hold for the method and conditions named. Some binding calls cover weakened binding; strength is not graded here.

Chains of the proteins cited; added tags and fusions are not shown. Lines headed by an entry give the natural chain unless they say otherwise; changes in a name come on top. Residues count along the entry.
UniProt P02769, residues 25-607: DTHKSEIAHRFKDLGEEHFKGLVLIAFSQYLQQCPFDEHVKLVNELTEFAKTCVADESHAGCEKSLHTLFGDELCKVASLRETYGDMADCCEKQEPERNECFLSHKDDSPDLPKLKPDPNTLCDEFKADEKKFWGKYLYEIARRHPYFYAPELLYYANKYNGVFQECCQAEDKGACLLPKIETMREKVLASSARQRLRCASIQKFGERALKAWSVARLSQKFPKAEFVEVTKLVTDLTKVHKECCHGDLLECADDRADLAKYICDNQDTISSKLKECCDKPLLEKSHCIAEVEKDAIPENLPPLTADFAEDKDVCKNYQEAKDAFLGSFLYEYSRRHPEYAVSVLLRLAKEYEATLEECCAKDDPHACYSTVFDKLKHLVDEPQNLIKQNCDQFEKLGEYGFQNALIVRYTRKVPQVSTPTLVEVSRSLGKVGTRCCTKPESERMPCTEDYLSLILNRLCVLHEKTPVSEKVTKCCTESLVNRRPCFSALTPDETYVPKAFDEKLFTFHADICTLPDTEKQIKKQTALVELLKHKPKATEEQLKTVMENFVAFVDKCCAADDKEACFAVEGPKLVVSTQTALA
UniProt P03744: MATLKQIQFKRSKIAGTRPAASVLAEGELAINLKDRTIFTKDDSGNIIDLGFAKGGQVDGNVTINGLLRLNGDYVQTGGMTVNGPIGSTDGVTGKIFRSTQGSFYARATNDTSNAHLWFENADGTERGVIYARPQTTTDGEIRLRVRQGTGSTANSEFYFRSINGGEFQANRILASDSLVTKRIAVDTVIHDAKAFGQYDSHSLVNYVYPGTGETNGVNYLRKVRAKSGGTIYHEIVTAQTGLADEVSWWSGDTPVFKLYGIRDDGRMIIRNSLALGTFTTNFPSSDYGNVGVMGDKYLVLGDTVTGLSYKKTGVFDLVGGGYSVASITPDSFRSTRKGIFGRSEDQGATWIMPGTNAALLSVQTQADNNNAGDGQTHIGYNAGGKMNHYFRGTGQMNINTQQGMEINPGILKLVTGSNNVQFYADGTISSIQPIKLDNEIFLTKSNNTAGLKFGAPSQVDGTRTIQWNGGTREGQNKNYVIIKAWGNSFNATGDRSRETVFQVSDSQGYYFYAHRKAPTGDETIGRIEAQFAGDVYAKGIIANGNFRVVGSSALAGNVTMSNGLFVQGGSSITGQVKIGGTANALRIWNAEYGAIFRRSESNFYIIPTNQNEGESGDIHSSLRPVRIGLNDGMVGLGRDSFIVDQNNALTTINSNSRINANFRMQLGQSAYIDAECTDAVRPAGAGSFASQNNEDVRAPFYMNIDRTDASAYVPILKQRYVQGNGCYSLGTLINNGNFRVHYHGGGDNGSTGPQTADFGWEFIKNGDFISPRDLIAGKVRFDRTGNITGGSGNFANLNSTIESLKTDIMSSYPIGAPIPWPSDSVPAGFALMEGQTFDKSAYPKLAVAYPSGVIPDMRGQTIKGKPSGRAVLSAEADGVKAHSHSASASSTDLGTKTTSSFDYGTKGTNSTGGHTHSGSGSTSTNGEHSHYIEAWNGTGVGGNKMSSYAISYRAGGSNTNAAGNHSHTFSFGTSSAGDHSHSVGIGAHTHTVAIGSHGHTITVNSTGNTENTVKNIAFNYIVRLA
Phage T4 LTF needle (gp37; amino acids 799–1026), wild type: residues 799-1026 of P03744

Tests used:
BSA = BSA (UniProt P02769); assay: ELISA; gp37 trimers coated (100 ng/well) overnight at 4°C, casein block, OmpC added (various molar ratios; gp37:OmpC 1:1 for the mutants), 37°C 2 hr, PBS-T washes, bound OmpC detected with mouse anti-OmpC sera and HRP anti-mouse IgG; both purified
[1] = biological target: Phage T4 LTF needle (gp37; amino acids 799–1026), wild type (bacteriophage T4) (UniProt P03744); assay: as above
[2] = biological target: gp37 needle (799–1026) G938A (bacteriophage T4) (UniProt P03744); assay: as above
[3] = biological target: gp37 needle (799–1026) I933A (bacteriophage T4) (UniProt P03744); assay: as above
[4] = biological target: gp37 needle (799–1026) N937A (bacteriophage T4) (UniProt P03744); assay: as above
[5] = biological target: gp37 needle (799–1026) I951A (bacteriophage T4) (UniProt P03744); assay: condition: OmpC added at a gp37:OmpC molar ratio of 1:1 (100 ng gp37/well); ELISA; gp37 trimers coated (100 ng/well) overnight at 4°C, casein block, OmpC added (various molar ratios; gp37:OmpC 1:1 for the mutants), 37°C 2 hr, PBS-T washes, bound OmpC detected with mouse anti-OmpC sera and HRP anti-mouse IgG; both purified
[6] = biological target: gp37 needle (799–1026) K945A (bacteriophage T4) (UniProt P03744); assay: as above
[7] = biological target: gp37 needle (799–1026) Y953A (bacteriophage T4) (UniProt P03744); assay: as above

B1: recombinant OmpC trimer (outer membrane protein C) (protein, UniProt P06996 22-367)
chain: AEVYNKDGNKLDLYGKVDGLHYFSDNKDVDGDQTYMRLGFKGETQVTDQLTGYGQWEYQIQGNSAENENNSWTRVAFAGLKFQDVGSFDYGRNYGVVYDVTSWTDVLPEFGGDTYGSDNFMQQRGNGFATYRNTDFFGLVDGLNFAVQYQGKNGNPSGEGFTSGVTNNGRDALRQNGDGVGGSITYDYEGFGIGGAISSSKRTDAQNTAAYIGNGDRAETYTGGLKYDANNIYLAAQYTQTYNATRVGSLGWANKAQNFEAVAQYQFDFGLRPSLAYLQSKGKNLGRGYDDEDILKYVDVGATYYFNKNMSTYVDYKINLLDDNQFTRDAGINTDNIVALGLVYQF
Q: With B1 as the binder, how does the binding (BSA) read?
A: Its binding is “no binding”.

Q: What about the binding [1] of the same binder?
A: Its binding is “binds”.

Q: And the binding [2]?
A: The binding was “binds”.

Q: And the binding [3]?
A: The binding was “binds”.

Q: And the binding [4]?
A: Its binding is “binds”.

Q: And the binding [5]?
A: The binding was “no binding”.

Q: And the binding [6]?
A: Its binding is “no binding”.

Q: And the binding [7]?
A: Its binding is “no binding”.
